# Test results: the supplement of paper PMC5499739
# The full ranking holds about 16,000 sequences; the median of “Z-score” is about -0.37, and the highest 2% start at about 3.2. This is one part of the list.
# System: RBM10 RRM1-ZnF (GST-tagged construct)
# Experiment: RNAcompete 7-mer binding Z-score; higher = stronger binding preference
# Procedure: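 RNAcompete: 20 pmol GST-tagged RBM10 RNA-binding constructs were incubated with a designed RNA pool of about 241,000 sequences up to 41 nt (1.5 nmol) on glutathione beads for 30 min at 4 °C and washed. Bound RNAs were identified by microarray hybridisation. Each RNA 7-mer is scored by a one-sided Z-score of its enrichment, computed over probes that contain the 7-mer within longer pool sequences.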
row,Sequence,RNAcompete 7-mer binding Z-score
1,UUAACGC,-0.633
2,ACAUUAC,-0.587
3,UUGCUAA,-0.62
4,CUGGCCG,-0.324
5,AUAUUGC,-0.578
6,GGGUUGG,4.64
7,CGAGUAC,-0.288
8,AGGCCCG,-0.704
9,CAUGGCG,0.205
10,UUUGAGU,-0.191
11,CAUCAAC,-0.613
12,AGUCGGU,0.842
13,AAUUAGC,-0.425
14,ACAACAA,-0.347
15,GUCGAGC,0.166
16,GGCAUGA,1.01
17,GGAAUGC,1.44
18,AACAAUU,-0.568
19,UGACGAG,0.339
20,UCCCCCG,-0.282
21,GGACCGA,-0.0544
22,AAAGCCU,-0.85
23,GAAUACC,-0.477

row,Sequence,RNAcompete 7-mer binding Z-score
1,GUAGCCU,-0.461
2,CCGAAUA,-0.642
3,UCCGAAG,-0.37
4,UUAUUUG,-0.655
5,GAUUUCC,-0.782
6,UUUUUCG,-0.711
7,UGGGUAC,2.69
8,GCUGGAA,0.771
9,GCAGACU,-0.262
10,UUCGGGG,1.72
11,AAGCUUA,-0.558
12,UCUUGGG,0.501
13,AUGCUAA,-0.5
14,CAUACUU,-0.763
15,GAGUUAA,0.29
16,AGAAUGA,0.147
17,GCGCUAC,-0.103
18,ACGACGA,-0.37
19,CCCCUCC,-0.259
20,GGGAUGC,3.06
21,GAACUUC,-0.782
22,CACUUGU,-0.694
23,AAUAGCC,-0.724

row,Sequence,RNAcompete 7-mer binding Z-score
1,AAUCCUC,-0.678
2,CCAGUGG,0.511
3,UGUGCAG,0.319
4,CUACAUG,-0.591
5,CAGGUUA,1.07
6,GUCUCGU,-0.509
7,UUGCAGU,-0.542
8,GAGAUAA,0.508
9,GCCCCGA,-0.412
10,CGAUAGC,-0.435
11,AUUGUUA,-0.188
12,CUACGUA,-0.513
13,UUAAUGG,0.897
14,GGAACGU,1.22
15,UGCUAUG,-0.168
16,AUAUAGG,1.32
17,GAAUUGC,-0.0187
18,AUGCAGU,-0.00246
19,CAAAUGU,-0.295
20,GAAGUGU,1.08
21,UCACAAA,-0.587
22,AAGACGA,0.439
23,AGCGCGG,1.1

row,Sequence,RNAcompete 7-mer binding Z-score
1,CGACCCC,-0.496
2,AGCCUUU,-1
3,GUACCCU,-0.597
4,UUUCACC,-0.818
5,AUUUAAG,-0.298
6,AUGGCGA,0.836
7,UCAGGGU,1.32
8,GUGAGGU,2.9
9,AUCGGCG,0.134
10,CAGUCAC,-0.373
11,CUGGACC,-0.409
12,CUGGGGG,2.28
13,GCCGUUA,-0.607
14,UGCCUAC,-0.571
15,UUCUAUA,-0.61
16,AACGUUU,-0.704
17,AACUGGA,0.667
18,CAUGCCU,-0.883
19,GAAGGUG,4.59
20,ACGUAGU,-0.0285
21,CUCUAAA,-0.811
22,CCACCUU,-0.766
23,GGGCCGU,0.53

row,Sequence,RNAcompete 7-mer binding Z-score
1,CCUGGGA,0.309
2,ACAUUGA,-0.214
3,GGUUCGU,0.303
4,GGCGUCU,-0.0479
5,CAAAGCU,-0.594
6,GCGUUUU,-0.529
7,UCCAGCC,-0.704
8,UAAAAGC,-0.574
9,GCUCGCG,-0.412
10,AUGUAGU,0.374
11,AAGCACA,-0.542
12,UAGGGCC,0.631
13,GACAGAA,0.296
14,GAACGUG,0.699
15,GGCUCGU,-0.0934
16,AGAUUCG,-0.227
17,CCCCAUA,-0.587
18,AAAAAAC,-0.457
19,CUUCGCA,-0.698
20,CAGAGGC,0.313
21,CACUCUC,-0.6
22,CUCACAU,-0.805
23,CCACGGA,0.264

row,Sequence,RNAcompete 7-mer binding Z-score
1,CGACAAG,0.144
2,CGUGUAU,-0.0999
3,GUUCCAC,-0.49
4,AGAGUCG,0.29
5,AAUGUGG,2.19
6,AGAACGC,-0.685
7,CAGGAUU,0.641
8,GCAGGGU,3.43
9,CAUCGAU,-0.513
10,GUGUCGC,0.238
11,GUUGGCA,1.01
12,ACACACU,-0.688
13,AUCCUGC,-0.792
14,GUGUGCU,0.267
15,AAGACUG,0.0333
16,AUUAGGG,2.33
17,CAACCAG,-0.168
18,ACAGCCC,-0.529
19,CAGGGCA,2.06
20,CCCAUAG,-0.681
21,ACUGUUC,-0.821
22,CGUGCGU,-0.103
23,ACAAGGG,2.96

row,Sequence,RNAcompete 7-mer binding Z-score
1,CCCCUUU,-0.733
2,UGUAGUC,-0.292
3,GGACUGC,0.361
4,UUUAUUA,-0.581
5,GCCCAUA,-0.805
6,ACUAGAA,0.0203
7,UCCCGGG,0.166
8,CCGGCCG,-0.555
9,GUAAACU,-0.123
10,GAUUACA,0.056
11,CGCCCAU,-0.737
12,AAAGAUU,-0.288
13,AUAUCAA,-0.464
14,UAUGACC,-0.604
15,CUCUUGC,-0.831
16,CGUCGAC,-0.454
17,GCUGGGG,2.64
18,CUCGCGC,-0.668
19,GCCAGCC,-0.467
20,GUUCGAA,-0.175
21,GUCAUGA,0.03
22,GAAUUAC,-0.34
23,UCUUUAU,-0.759

row,Sequence,RNAcompete 7-mer binding Z-score
1,UUUAAGU,-0.578
2,ACCAAAA,-0.613
3,UUUACGA,-0.659
4,GGGCUGG,2.44
5,GCGAGCU,0.215
6,UUGGCGU,0.251
7,GUCUACC,-0.649
8,UUCUGUC,-0.87
9,UUCGUUA,-0.873
10,AAUGAUC,-0.506
11,GGCGUCC,-0.158
12,GUGAUUU,-0.272
13,ACCCUUA,-0.954
14,AUCGCCU,-0.919
15,CUAAGCA,-0.578
16,GCUUAGA,-0.376
17,GGCUGUU,-0.0544
18,GUAUGUG,1.07
19,AGAAUAA,-0.305
20,AGCCGCC,-0.435
21,UAAUAGA,-0.119
22,GAAACGA,0.121
